# Laboratory results: the supplement of paper PMC8728848
# Some of the results follow.
# B1: PX9937F-bfa-516-16-516 (Bacteroides fragilis) (protein)
# chain: LDIDPTSSIADSNYWKTEAQFSTFNVGLHALLRECSFNFFLLGEPRADIYGDVPFGGEATQGMERLPFNTINKENTGISNFAGMYKVINQINLMIAKTKETTVLSEAGKNYYLGEAYGMRAYLYFHLLRSWGDVILYLDYTNGASLDLSNLSKAASPAEEVMKQIKEDITASEKGFGSDYSFKYGRYYWSMAATQMLKGEVYLWSGRQMGGGTADYTTAKTALQSIVSNANVSLQDDFSKVFAYNNKDNSEIIFSIRNAKDEYNMWDDRFRQNLVPQQAYMTSTYCNKEGVSFKDLPEGQLNGLIRLQIRYDLYNKAFRDGDTRKDASMTAVYQKQQDGTVKYIAPFCNKYQGVLLDGASQRSFLNDYPIYRYADCLLLLAEAKALLGEDPTAEINQVRERAYGKEFFEANKATLAYPNDKGDFYTDNKYMSGDEDPLEAILKERMREFMFEGKRWYDLRLLGADYVTKRTSAVATRLLWPINESVLTDNPALKQTPGYQN
# Experiments:
# Assay in all cases: glycan array binding signal (z-score within array); higher = stronger binding
# Conditions in all cases: glycan notation: IUPAC condensed, linker removed
# Fuc(a1-2)Gal = biological target: Fuc(a1-2)Gal
# How it was run: (§1)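 The binding signal is a Z-score computed within each array and averaged over linkers. Arrays of the same protein sequence at different concentrations or buffers were also averaged together. Data originate from 3228 arrays in the Consortium for Functional Glycomics database, kept only where the protein sequence was available.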
# Fuc(a1-2)Gal(b1-3)GalNAc = biological target: Fuc(a1-2)Gal(b1-3)GalNAc
# How it was run: as §1
# [1] = biological target: Fuc(a1-2)Gal(b1-3)GalNAc(a1-3)[Fuc(a1-2)]Gal(b1-4)Glc
# How it was run: as §1
# [2] = biological target: Fuc(a1-2)Gal(b1-3)GalNAc(a1-3)[Fuc(a1-2)]Gal(b1-4)GlcNAc
# How it was run: as §1
# [3] = biological target: Fuc(a1-2)Gal(b1-3)GalNAc(b1-3)Gal
# How it was run: as §1
# [4] = biological target: Fuc(a1-2)Gal(b1-3)GalNAc(b1-3)Gal(a1-4)Gal(b1-4)Glc
# How it was run: as §1
# [5] = biological target: Fuc(a1-2)Gal(b1-3)GalNAc(b1-4)[Neu5Ac(a2-3)]Gal(b1-4)Glc
# How it was run: as §1
# Fuc(a1-2)Gal(b1-3)GlcNAc = biological target: Fuc(a1-2)Gal(b1-3)GlcNAc
# How it was run: as §1
# [6] = biological target: Fuc(a1-2)Gal(b1-3)GlcNAc(b1-2)Man(a1-3)[Fuc(a1-2)Gal(b1-3)GlcNAc(b1-2)Man(a1-6)]Man(b1-4)GlcNAc(b1-4)GlcNAc
# How it was run: as §1
# [7] = biological target: Fuc(a1-2)Gal(b1-3)GlcNAc(b1-2)Man(a1-3)[Fuc(a1-2)Gal(b1-3)GlcNAc(b1-2)Man(a1-6)]Man(b1-4)GlcNAc(b1-4)[Fuc(a1-6)]GlcNAc
# How it was run: as §1
# [8] = biological target: Fuc(a1-2)Gal(b1-3)GlcNAc(b1-3)Gal(b1-4)Glc
# How it was run: as §1
# [9] = biological target: Fuc(a1-2)Gal(b1-3)GlcNAc(b1-3)GalNAc
# How it was run: as §1
# [10] = biological target: Fuc(a1-2)Gal(b1-3)GlcNAc(b1-3)[Fuc(a1-2)Gal(b1-3)GlcNAc(b1-6)]GalNAc
# How it was run: as §1
# [11] = biological target: Fuc(a1-2)Gal(b1-3)GlcNAc(b1-3)[Gal(b1-4)GlcNAc(b1-6)]Gal(b1-4)Glc
# How it was run: as §1
# [12] = biological target: Fuc(a1-2)Gal(b1-3)GlcNAc(b1-3)[Neu5Ac(a2-6)Gal(b1-4)GlcNAc(b1-6)]Gal(b1-4)Glc
# How it was run: as §1
# [13] = biological target: Fuc(a1-2)Gal(b1-3)GlcNAc6S
# How it was run: as §1
# [14] = biological target: Fuc(a1-2)Gal(b1-3)[Fuc(a1-4)]GlcNAc
# How it was run: as §1
# [15] = biological target: Fuc(a1-2)Gal(b1-3)[Fuc(a1-4)]GlcNAc(b1-2)Man(a1-3)[Fuc(a1-2)Gal(b1-3)[Fuc(a1-4)]GlcNAc(b1-2)Man(a1-3)]Man(b1-4)GlcNAc(b1-4)GlcNAc
# How it was run: as §1
# [16] = biological target: Fuc(a1-2)Gal(b1-3)[Fuc(a1-4)]GlcNAc(b1-2)Man(a1-3)[Fuc(a1-2)Gal(b1-3)[Fuc(a1-4)]GlcNAc(b1-2)Man(a1-6)]Man(b1-4)GlcNAc(b1-4)[Fuc(a1-6)]GlcNAc(b1-4)[Fuc(a1-6)]GlcNAc
# How it was run: as §1
# [17] = biological target: Fuc(a1-2)Gal(b1-3)[Fuc(a1-4)]GlcNAc(b1-3)[Fuc(a1-3)[Gal(b1-4)]GlcNAc(b1-6)]Gal(b1-4)Glc
# How it was run: as §1
# [18] = biological target: Fuc(a1-2)Gal(b1-3)[Fuc(a1-4)]GlcNAc(b1-3)[Gal(b1-4)GlcNAc(b1-6)]Gal(b1-4)Glc
# How it was run: as §1
# Fuc(a1-2)Gal(b1-4)Glc = biological target: Fuc(a1-2)Gal(b1-4)Glc
# How it was run: as §1
# Fuc(a1-2)Gal(b1-4)Glc6S = biological target: Fuc(a1-2)Gal(b1-4)Glc6S
# How it was run: as §1
# Fuc(a1-2)Gal(b1-4)GlcNAc = biological target: Fuc(a1-2)Gal(b1-4)GlcNAc
# How it was run: as §1
# [19] = biological target: Fuc(a1-2)Gal(b1-4)GlcNAc(b1-2)Man
# How it was run: as §1
# [20] = biological target: Fuc(a1-2)Gal(b1-4)GlcNAc(b1-2)Man(a1-3)[Fuc(a1-2)Gal(b1-4)GlcNAc(b1-2)Man(a1-6)]Man(b1-4)GlcNAc(b1-4)GlcNAc
# How it was run: as §1
# [21] = biological target: Fuc(a1-2)Gal(b1-4)GlcNAc(b1-2)Man(a1-3)[Fuc(a1-2)Gal(b1-4)GlcNAc(b1-2)Man(a1-6)]Man(b1-4)GlcNAc(b1-4)[Fuc(a1-6)]GlcNAc
# How it was run: as §1
# [22] = biological target: Fuc(a1-2)Gal(b1-4)GlcNAc(b1-2)[Fuc(a1-2)Gal(b1-4)GlcNAc(b1-4)]Man(a1-3)[Fuc(a1-2)Gal(b1-4)GlcNAc(b1-2)Man(a1-6)]Man(b1-4)GlcNAc(b1-4)GlcNAc
# How it was run: as §1
# [23] = biological target: Fuc(a1-2)Gal(b1-4)GlcNAc(b1-3)Gal(b1-4)GlcNAc
# How it was run: as §1
# [24] = biological target: Fuc(a1-2)Gal(b1-4)GlcNAc(b1-3)Gal(b1-4)GlcNAc(b1-2)Man(a1-3)[Fuc(a1-2)Gal(b1-4)GlcNAc(b1-3)Gal(b1-4)GlcNAc(b1-2)Man(a1-6)]Man(b1-4)GlcNAc(b1-4)GlcNAc
# How it was run: as §1
binder,measurement,setting,value
B1,glycan array binding signal (z-score),Fuc(a1-2)Gal,0.177
same,glycan array binding signal (z-score),Fuc(a1-2)Gal(b1-3)GalNAc,-0.221
same,glycan array binding signal (z-score),[1],-0.365
same,glycan array binding signal (z-score),[2],0.373
same,glycan array binding signal (z-score),[3],0.076
same,glycan array binding signal (z-score),[4],0.493
same,glycan array binding signal (z-score),[5],-0.287
same,glycan array binding signal (z-score),Fuc(a1-2)Gal(b1-3)GlcNAc,-0.31
same,glycan array binding signal (z-score),[6],0.046
same,glycan array binding signal (z-score),[7],0.127
same,glycan array binding signal (z-score),[8],-0.272
same,glycan array binding signal (z-score),[9],-0.3
same,glycan array binding signal (z-score),[10],1.06
same,glycan array binding signal (z-score),[11],0.072
same,glycan array binding signal (z-score),[12],-0.097
same,glycan array binding signal (z-score),[13],-0.091
same,glycan array binding signal (z-score),[14],-0.318
same,glycan array binding signal (z-score),[15],0.059
same,glycan array binding signal (z-score),[16],-0.23
same,glycan array binding signal (z-score),[17],-0.103
same,glycan array binding signal (z-score),[18],-0.259
same,glycan array binding signal (z-score),Fuc(a1-2)Gal(b1-4)Glc,-0.109
same,glycan array binding signal (z-score),Fuc(a1-2)Gal(b1-4)Glc6S,0.18
same,glycan array binding signal (z-score),Fuc(a1-2)Gal(b1-4)GlcNAc,-0.216
same,glycan array binding signal (z-score),[19],-0.08
same,glycan array binding signal (z-score),[20],-0.256
same,glycan array binding signal (z-score),[21],-0.139
same,glycan array binding signal (z-score),[22],0.264
same,glycan array binding signal (z-score),[23],-0.104
same,glycan array binding signal (z-score),[24],-0.159
